Where “and” joins values, the source holds several entries; their conditions need not be identical. Equal values may be shown once.
Key:
[1] = Hepatic microsomal stability; type: in vitro ADME; details: 100 x Conc. at 30 min/Conc. at 0 min, mice microsomes
[2] = system: J774 a.1 macrophage cell line; assay: cells; details: Mus musculus, J774.A1, 120 h, MTT, 5 days
Protocol: The IC50 was calculated from the dose response curve as the dose was inhibited the 50% of cell viability. The ratio between IC50 and MIC against M. bovis BCG was used to calculate the selectivity index (SI) of each compound as an estimate of the therapeutic window as shown in the following table.

| SMILES | Stability (%) [1] | IC50 [2] |
| --- | --- | --- |
| CNCCOc1nn(-c2c(Cl)cc(Cl)cc2Cl)c(C(Cl)Cl)c1[N+](=O)[O-].Cl [LX079, 2-((5-(Dichloromethyl)-4-nitro-1-(2,4,6-trichlorophenyl)-1H-pyrazol-3-yl)oxy)-N-methylethanaminium chloride] | 23.14% and 23.14 ± 2.01% | 2 µg/mL |
| CNCCOc1nn(-c2c(Cl)cc(C(F)(F)F)cc2Cl)c(C(Cl)Cl)c1[N+](=O)[O-].Cl [Lx088, 2-((1-(2,6-Dichloro-4-(trifluoromethyl)phenyl)-5-(dichloromethyl)-4-nitro-1H-pyrazol-3-yl)oxy)-N-methylethanaminium chloride] | – | 6 µg/mL |
| CCNCCOc1nn(-c2c(Cl)cc(Cl)cc2Cl)c(C(Cl)Cl)c1[N+](=O)[O-].Cl [Lx089, 2-((5-(Dichloromethyl)-4-nitro-1-(2,4,6-trichlorophenyl)-1H-pyrazol-3-yl)oxy)-N-ethylethanaminium chloride] | – | 2 µg/mL |

Reference: EP2829536A1, “4-Nitro-5-dichloromethylpyrazol derivatives for the treatment of infectious diseases” (priority 2013, dated 2015)
